The campaign covered roughly 310,000 compounds. About 14,000 (4.5%) showed an effect of 50% or more. Effects have a minus sign here. The list shows a part of the results.
molecular target: human ether-à-go-go-related gene (hERG) potassium channel (human, UniProt Q12809); assay: primary screen, population patch clamp on CHO cells stably expressing hERG
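Also: peak tail current of the secondary pulse compared with the same well before compound.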

Chain of human ether-à-go-go-related gene (hERG) potassium channel (Q12809 whole entry, looked up): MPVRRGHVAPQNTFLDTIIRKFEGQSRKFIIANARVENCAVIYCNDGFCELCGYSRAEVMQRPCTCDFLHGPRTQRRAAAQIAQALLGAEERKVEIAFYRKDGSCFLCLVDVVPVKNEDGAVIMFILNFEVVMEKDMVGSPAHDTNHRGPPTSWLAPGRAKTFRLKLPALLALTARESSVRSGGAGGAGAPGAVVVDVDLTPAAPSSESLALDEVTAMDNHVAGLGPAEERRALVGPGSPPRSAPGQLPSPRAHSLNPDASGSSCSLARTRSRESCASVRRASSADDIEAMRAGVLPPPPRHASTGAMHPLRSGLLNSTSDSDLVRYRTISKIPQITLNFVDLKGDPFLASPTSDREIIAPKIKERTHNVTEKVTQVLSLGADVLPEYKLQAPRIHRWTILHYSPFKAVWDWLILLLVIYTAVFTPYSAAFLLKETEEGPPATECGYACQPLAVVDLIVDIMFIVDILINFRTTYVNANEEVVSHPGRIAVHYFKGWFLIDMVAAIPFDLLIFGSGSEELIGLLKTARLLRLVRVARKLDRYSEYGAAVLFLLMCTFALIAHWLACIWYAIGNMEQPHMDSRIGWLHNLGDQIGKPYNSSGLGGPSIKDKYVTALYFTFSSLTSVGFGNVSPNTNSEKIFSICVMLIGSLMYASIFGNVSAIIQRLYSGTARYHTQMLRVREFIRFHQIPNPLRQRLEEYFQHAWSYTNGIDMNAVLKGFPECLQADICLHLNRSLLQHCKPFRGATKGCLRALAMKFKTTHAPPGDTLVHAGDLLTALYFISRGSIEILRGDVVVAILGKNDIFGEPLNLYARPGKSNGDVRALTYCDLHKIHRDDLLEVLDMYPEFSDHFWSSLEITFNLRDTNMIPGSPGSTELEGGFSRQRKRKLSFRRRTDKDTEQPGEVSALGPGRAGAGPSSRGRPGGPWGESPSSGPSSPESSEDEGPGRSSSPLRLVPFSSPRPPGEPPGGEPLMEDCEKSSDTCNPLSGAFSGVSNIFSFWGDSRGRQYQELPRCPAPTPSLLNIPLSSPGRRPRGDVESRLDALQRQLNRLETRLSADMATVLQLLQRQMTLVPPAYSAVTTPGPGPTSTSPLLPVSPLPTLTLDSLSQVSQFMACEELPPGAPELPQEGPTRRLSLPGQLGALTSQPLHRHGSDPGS

SMILES | hERG current change (%, negative = inhibition) at 10uM [%]
O=C(NCCOc1ccccc1)C(c1ccccc1)c1ccccc1 | 4.64
Cc1[nH]cnc1C(=O)N/N=C/c1c(Cl)cccc1Cl | 10.1
Cc1noc(C)c1C(=O)N1CCN(c2cccc(Cl)c2)CC1 | -3.58
O=C(Nc1ccc(NC(=O)c2cccs2)cc1)c1cccnc1 | 21.9
O=C(NC1CC2CCCC(C1)N2C(=O)NCc1ccccc1)C1CC1 (stereo not shown) | 4.22
COc1ccc(C(=O)NCc2ccc(N3CCN(C(=O)OC(C)(C)C)CC3)cc2)cc1 | -12.7
CCOC(=O)C1=C(C)N=c2s/c(=C/c3ccc(OCC(=O)O)cc3)c(=O)n2C1c1ccc(SC)cc1 (stereo not shown) | 20.8
N#Cc1c(NC(=S)NC(=O)c2ccccc2)sc2c1CCCC2 | 11.7
Cc1ccc(-n2cc(CNCCc3ncc(C)[nH]3)c(-c3ccc(F)cc3)n2)cc1 | -47.4
COc1nn(C(C)C(=O)N2N=C(C(F)F)CC2(O)C(F)F)cc1[N+](=O)[O-] (stereo not shown) | 0.291
Cc1ccc(NC(=O)CSc2nnc(CN3CCOCC3)n2C)cc1C | -1.39
Cc1cc(NO)c(C(C)C)cc1N=O | -2.87
COc1ccc(NC(=O)NC23CC4(C)CC(C)(CC(C)(C4)C2)C3)cc1 | -25.7
CC1=C(C(=O)N(C)Cc2ccccc2)C2(CCC(C)CC2)OC1=O (stereo not shown) | -4.71
CC(C)(C)OC(=O)CC[C@@H](C(=O)N1CCN(C(=O)OC(C)(C)C)CC1)n1cc(C(Cc2ccc(O)cc2)NC(=O)OC(C)(C)C)nn1 (stereo partly shown) | 14.2
COc1ccc(NC(=O)c2cc3c(=O)n(C)c4ccccc4c3n2C)cc1Cl | 5.28
COc1ccc(Cc2nnc(NC(C)=O)s2)cc1 | 7.23
COCCn1c(SCC(=O)Nc2ccc(C(C)=O)cc2)nnc1-c1ccco1 | -16.6
CC(=O)NCc1ccc(S(=O)(=O)N2CCCN(C)CC2)cc1.Cl | 17.1
CC1SCC(=NOCc2ccccc2)CS1 (stereo not shown) | 6.57
CCCCC[C@H](O)/C=C/C1=C(CCCCCCC(=O)O)C(=O)CC1 | 17.9
COc1cccc2c1cc1c(=O)n(CC(=O)NC3CCCCC3)nc(C)n12 | -1.91

SMILES | hERG current change (%, negative = inhibition) at 10uM [%]
COc1ccccc1NC(=O)C(C)OC(=O)Cn1cnc2c1c(=O)n(C)c(=O)n2C (stereo not shown) | 7.78
COCCC1CCCCN1C(=O)c1cc(COc2cccc(C(C)=O)c2)on1 (stereo not shown) | -4.93
COc1ccc(O)c(CN2CCCC(N3CCc4ccccc4C3)C2)c1 (stereo not shown) | -46.6
NC(=O)C1CCN(S(=O)(=O)c2cc3c4c(c2)CCN4C(=O)CC3)CC1 | 10.4
CC(C)(C)NCC(=O)c1c[nH]c2ccccc12 | -2.11
Cc1ccc(S(=O)(=O)N(C)c2nc3ccccc3n3c(C(C)C)nnc23)cc1 | -28.1
CN(CC(=O)OCC(=O)NCc1ccccc1)S(=O)(=O)c1ccc(Cl)cc1 | -6.5
CC1=NNC(=O)C1CCC(=O)N/N=C(/C)c1ccc([N+](=O)[O-])cc1 (stereo not shown) | 0.0577
CCn1c2ccccc2c2cc(/C=N/NC(=O)c3ccncc3)ccc21 | 17.9
COc1cccc(OC)c1C(=O)Nc1ccc(CN2CCOCC2)cc1 | 0.597
CCN1CCN(c2nc(NCCO)c3ccccc3n2)CC1.Cl | -16.7
O=C(Nc1ccccc1)c1cccc(=O)o1 | 21.2
O=C(NCCCn1ccnc1)c1ccc(-c2ccccc2)cc1 | -21.6
COc1ccc(/C=C2\N=C(C)OC2=O)cc1OC | 16.5
CC1Cc2ccccc2N1C(=O)c1ccc(N2CCCC2)c([N+](=O)[O-])c1 (stereo not shown) | -3.31
COc1cc(C(=O)OCC(=O)Nc2c(C)n(C)n(-c3ccccc3)c2=O)c([N+](=O)[O-])cc1OC | 7.15
CCOC(=O)c1c(-c2ccccc2)csc1NC(=O)c1cc2ccccc2oc1=O | -10.4
COc1ncccc1C(=O)N1CCC(n2nccc2NC(=O)CC(C)C)CC1 | 16.4
COc1ccc(OC)c(NC(=O)N2C[C@H]3C[C@@H](C2)c2cccc(=O)n2C3)c1 | -8.26
O=C(CCc1ccccc1)NNC(=O)c1ccccc1Br | 1.93
CCOc1cc(S(=O)(=O)Nc2ccc(CC)cc2)ccc1Cl | -11.3
COc1cc(NC(=O)Nc2cccc([N+](=O)[O-])c2)cc(OC)c1 | 1.42

SMILES | hERG current change (%, negative = inhibition) at 10uM [%]
O=C(c1nc(-c2ccccc2)n(-c2ccccc2)n1)N1CCN(S(=O)(=O)c2ccccc2)CC1 | -41.2
CC(C)NC(=O)C1(c2ccccc2)CCOCC1 | 3.55
Cc1cc(C)c(C)c(S(=O)(=O)Nc2ccc3cn[nH]c3c2)c1C | 3.26
O=C(CCC1CCCCC1)Nc1ccccc1O | 3.23
CCCn1nnc(NC(=O)c2ccc3ccccc3c2)n1 | -1.9
COc1ccc(C)cc1S(=O)(=O)Nc1ccc2c(c1)N(C(C)=O)CCC2 | 11
Cc1ccc(C(C)(C)C)c(OCCCCN2CCCC2)c1 | -19.9
COc1ccccc1N1CC(C)(C)C(=O)N(C(=O)c2ccc(C)cc2)C1=S | 2.13
CN(Cc1ccccc1F)C(=O)C(Cc1ccccc1)NC(=O)c1ccccc1 (stereo not shown) | -5.82
Fc1c(F)c(F)c(CSc2nc3ccccc3[nH]2)c(F)c1F | -0.406
OCCCNC(=S)Nc1ccc(Nc2ccccc2)cc1 | 10.5
COc1ccccc1NC(=O)COC(=O)CCS(=O)(=O)c1ccc(C)cc1 | 23.4
O=c1cc(-c2ccccc2)cc(-c2ccccc2)n1CCO | -21.5
Cc1onc(-c2ccccc2)c1C(=O)N/N=C/c1ccccc1OC(C)C | 4.5
Cc1cccc(Cn2c(NCCO)nc3c2c(=O)n(C)c(=O)n3C)c1 | -11
CCc1ccc(C2=NN(C(C)=O)C(c3ccco3)C2)cc1 (stereo not shown) | -9.61
C#Cc1ccc([C@@H]2C=C(C(=O)N3CCN(Cc4ccc5c(c4)OCO5)CC3)O[C@H](OCC)[C@H]2CCCO)cc1 | -15.8
CC1C=CCC2C(=O)N(c3cccc(C(=O)N4CCCCCC4)c3)C(=O)C12 (stereo not shown) | -3.15
O=C1N=C(N2CCOCC2)CS1 | -8.06
COc1cccc(C(=O)Nc2ccc3c(c2)C(=O)c2ccccc2C3=O)c1 | 16.5
CCOC(=O)c1nnn(-c2nonc2N)c1-c1ccccc1Cl | 15.3
Cc1cc(Cc2c(O)[nH]c(=S)[nH]c2=O)ccc1OC(C)C | 13.8

SMILES | hERG current change (%, negative = inhibition) at 10uM [%]
CC(C)CC(=O)Nc1cccc(NC(=O)CC(C)C)n1 | 5.81
C=CCN(c1ccccc1)S(=O)(=O)c1cccc(C(=O)NC2CCC(O)CC2)c1 (stereo not shown) | -7.48
Cc1ccc(C(=O)O)cc1NC(=S)NC(=O)c1ccc([N+](=O)[O-])c(C)c1 | 32.3
COc1cccc(CNC(=O)CSc2nc3c(oc4ccccc43)c(=O)n2CC2CCCO2)c1 (stereo not shown) | -36.4
Cc1cccc(C)c1NC(=O)CCCSc1nnc(N)s1 | 7.8
COc1ccccc1NS(=O)(=O)c1cccc(NC(=O)c2[nH]c(C)c(C(C)=O)c2C)c1 | 13.7
CCOC(=O)c1c[nH]c2c(Cl)ccc(Cl)c2c1=O | -4.33
Cn1cnc(S(=O)(=O)Nc2ccccc2N2CCOCC2)c1 | 0.647
Cc1cc(C)c(NC(=O)c2ccc(CN3CCc4ccccc4C3)cc2)c(C)c1 | -26.6
c1ccc(Cn2nnnc2-c2ccco2)cc1 | -3.96
Cc1onc(-c2ccccc2)c1C(=O)N1CCN(c2ccccc2)CC1 | 11.9
COCC(=O)N1CCC(Oc2ccc(C(=O)NC(C)c3nc(C)sc3C)cc2)CC1 (stereo not shown) | 21
CCOc1ccccc1C(=O)NC1CCN(CC(=O)Nc2cc(OC)ccc2OC)CC1 | -77.2
Br.N=C(N)SCCc1cnc[nH]1 | 11.9
COC(=O)c1ccc2c(=O)[nH]c(COC(=O)CCC(=O)c3ccc(Cl)cc3)nc2c1 | 7.45
COc1ccc(C(C(=O)NC2CCCC2)N(C(=O)c2ccco2)c2cc3c(cc2C(C)=O)OCO3)cc1 (stereo not shown) | 1.72
COCCNC(=O)/C(C#N)=C/c1ccc(OCc2ccccc2)cc1 | 4.93
COc1ccc(C(=O)OCc2ccc(C)cc2)cc1S(=O)(=O)N1CCOCC1 | -24.6
O=C(CCNS(=O)(=O)c1ccccc1)Nc1ccccc1 | 17.8
CC(C)C(NC(=O)COc1ccc2ccccc2c1)C(=O)N/N=C/C=C/c1ccccc1 (stereo not shown) | 14.8
O=C(C1CCN(S(=O)(=O)N2CCC3(CC2)OCCO3)CC1)N1CCN(Cc2ccccc2)CC1 | -25
COc1ccc(C(=O)N/C(=C\c2cn(S(=O)(=O)N(C)C)c3ccccc23)C(=O)NC(C)C)cc1 | 23.9
